Assay results taken from PubChem BioAssay AID1508624 (National Center for Advancing Translational Sciences (NCATS), 2021).
The whole screen tested about 48,000 compounds, of which about 120 (0.25%) were called active. Inconclusive results (about 4%) are left out. Calls follow the shape of the dose curve; as a rule, active = well fitted activation curve with a large enough effect; inconclusive = small, poorly fitted or top-dose-only effect, or another doubt; inactive = no such curve, though single readings can be large or run the other way. The list shows a part of the results.

Assay: Primary qHTS for Identification of Small Molecule Activators of Huntingtin-Antisense Promoter Activity; also: nearly all actives have a fitted effect of over 55% in size
Conditions: HEK293 HTT-AS promoter firefly luciferase reporter, 24 h; series mostly up to 57.5 µM; activity change, positive = activation: at the top concentration
Procedure, shortened: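 HEK293 Fluc reporter, 2,500 cells/well, 24 h pre-culture; cpds up to 57.5 uM final, 24 h 37 degrees C; Dual-Glo, 10 min RT; normalized vehicle = 0%, zero RLU = -100%.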

Activity change, positive = activation, inactive:
CC(C)c1nc(CN(C)C(=O)N[C@H](C(=O)N[C@@H](Cc2ccccc2)C[C@H](O)[C@H](Cc2ccccc2)NC(=O)OCc2cncs2)C(C)C)cs1
COC(=O)c1ccccc1NC(=O)Cn1c(=O)n(-c2ccc(C)cc2)c(=O)c2ccccc21 -33.8%
CCOc1ccc(NC(=O)Cn2nc(CC)n3c(cc4sccc43)c2=O)cc1 -3.97%
Cc1ccc2c(c1)c1c(c(=O)n(-c3cccc(Cl)c3)c(=O)n1CC(N)=O)n2C -8.83%
COc1cc(Nc2nc3c(S(=O)(=O)c4cccc(Cl)c4)nnn3c3ccsc23)cc(OC)c1 -6.51%
CCC(=O)N1CCc2cc(S(=O)(=O)NCCC(=O)Nc3ccc(C)cc3C)ccc21 5.56%
COc1ccccc1OCCNCC(O)COc1cccc2[nH]c3ccccc3c12 (stereo not drawn)
O=C1Nc2ccccc2C1Cc1ccc(Br)cc1 (stereo not drawn) -18.1%
CC1CCc2noc(NC(=O)c3ccc([N+](=O)[O-])cc3)c2C1 (stereo not drawn) 7.87%
Cc1ccc(NC(=O)CN2C(=O)c3ccccc3Sc3ccc(C(=O)N4CCOCC4)cc32)cc1C -17.9%
Cc1ccc(NC(=O)CSc2nc3nccnc3c(=O)n2CCc2c[nH]c3ccccc23)cc1C -23.9%
O=C(CSc1nc(=O)n(Cc2ccccn2)c2c1CCC2)Nc1cccc(Cl)c1 -32.4%
COCCNC(=O)CSc1nc(-c2ccc(C)cc2)[nH]c1-c1ccc(OC)cc1 -11.2%
CCc1ccc(NC(=O)CN2C(C(=O)OC)=C(c3ccccc3)c3ccccc3S2(=O)=O)cc1 -25%
CC(C)CCNC(=O)C1CCC(CNS(=O)(=O)c2cccc3nsnc23)CC1 (stereo not drawn) -5.96%
CCCc1nn2c(=O)cc(COC(=O)c3ccccc3NC(=O)c3ccc(OCC)cc3)nc2s1 24.7%
O=C(Nc1ccc(Cl)cc1F)c1cc(S(=O)(=O)NC2CCCCCC2)ccc1F -31%
Cc1ccc(C(=O)c2cn(Cc3ccccc3)c3ccccc3c2=O)cc1 11.3%
Cc1ccccc1OCC(=O)Nc1ccccc1C(=O)OCc1cc(=O)n2nc(C3CC3)sc2n1 0%
Cc1cccc(NC(=O)c2oc3ccccc3c2NC(=O)Cc2coc3cc(C)cc(C)c23)c1 -1.16%
Cc1ccc(-c2c3c(=O)n(C)c(=O)n(C)c3c3c(C)nc4ccccc4n23)cc1 2% [at 11.5 µM, percent change from vehicle, -100% = no light]
COc1ccc(NC(=O)Cn2ccn(-c3ccc(C)c(C)c3)c(=O)c2=O)cc1Cl -11.6%
Cc1cc(N2CCN(c3ccc(F)cc3)CC2)n2cnnc2n1 -9.21%
COc1ccc(Cl)cc1NC(=O)CSc1nc(=O)[nH]c2c1CCC2 -23.9%
COc1ccccc1CNc1ncnc2c1nc1n2CCCC1 -8.05%
Cc1ccc(Cl)cc1NC(=O)c1cc(S(=O)(=O)N2CCOCC2)cn1C -9.28%
COc1ccccc1CNS(=O)(=O)c1c(C)nc2sc(C)cn2c1=O -5.86%
O=C(O)c1ccc2c(c1)N(Cc1ccc(F)cc1)C(=O)c1ccccc1S2=O (stereo not drawn) -26.6%
Cc1cc(NC(=O)c2cc(-c3ccc(F)cc3)on2)nn1Cc1ccc(Cl)cc1 -36%
Cc1ccc2c(CC(=O)Nc3ccc(S(=O)(=O)N4CCCC(C)C4)cc3)coc2c1 (stereo not drawn) -11.2%
CC1CCN(S(=O)(=O)c2ccc3c(c2)N(CC(=O)NCCN(C)C)C(=O)CS3)CC1 -1.45%
O=C(NCCc1ccccc1)c1ccc2c(c1)CCN2S(=O)(=O)c1ccc(Cl)cc1 -17.7%
COC(=O)c1cc(NC(=O)Cn2ncc3c([nH]c4ccccc43)c2=O)cc(C(=O)OC)c1 -18%
O=C(Cn1c(=O)c2cccn2c2ccc(F)cc21)Nc1cccc(F)c1 -28.5%
CCCCN(C)C(=O)C1CCC(Cn2c(=O)[nH]c3ccsc3c2=O)CC1 (stereo not drawn) -8.33%
OC(c1ccccc1)c1nc2ccccc2n1Cc1c(F)cccc1Cl (stereo not drawn) -18.4%
Cc1oc2ncnc(N3CCOCC3)c2c1C(=O)Nc1ccc(Br)cc1F -18.8%
Fc1ccc(-n2nc(-c3ccccc3)c3cnc4ccccc4c32)cc1Cl -2.01%
COC(=O)c1scc(-c2ccccc2)c1S(=O)(=O)Nc1ccc(C)c(Cl)c1 -39%
CCOc1ccc(NC(=O)c2c(NCc3cccs3)sc3c2CCCCC3)cc1 2.83%
OC[C@@H](O)[C@H](O)[C@H](O)[C@@H](O)CO
COc1ccc(C2C=C(c3ccccc3)Nc3nc(NC(=O)/C=C/c4ccccc4OC)nn32)cc1 (stereo not drawn) -21.5%
Cc1cccc(OCC(=O)N(Cc2ccc(N(C)C)cc2)Cc2ccco2)c1C -38.9%
Cc1ccnc2nc(NC(=O)c3ccccc3Cl)nn12 20.2%
Cc1cccc(N(CC(=O)N(C)Cc2ccccc2)S(=O)(=O)c2ccccc2)c1C -17.1%
CCC(=O)N1CCc2cc(Br)cc(S(=O)(=O)N3CCCC(C(=O)Nc4ccc(OC)cc4OC)C3)c21 (stereo not drawn) -10.7%
CCc1ccc(S(=O)(=O)c2nnn3c2nc(NC(C)C)c2cc(Cl)ccc23)cc1 -4.93%
COc1cc(N2CCC(N3CCN(C)CC3)CC2)ccc1Nc1ncc(Cl)c(Nc2ccccc2S(=O)(=O)C(C)C)n1 -43.7%
O=C(NCC1CCCCN1)c1cc(OCC(F)(F)F)ccc1OCC(F)(F)F (stereo not drawn)
CC12CN3CC(c4ccccc4)(CN(C1)C3c1ccc(Cl)cc1)C2=O (stereo not drawn) 1.05%
CC(=O)c1cc(-c2ccccc2)n(CCC(=O)NC2CCCCC2)c1C -26.6%
CC1CCc2cc(F)cc3c(=O)c(C(=O)O)cn1c23 (stereo not drawn) -3.46%
COc1ccccc1CNC(=O)c1ccc(CS(=O)c2ccccc2Cl)o1 (stereo not drawn) -26.4%
O=C(NCCc1ccc(Cl)cc1)c1ccc(CSCc2ccc(Cl)cc2)o1 -23.5%
Clc1ccccc1-c1nnc(SCc2nc(-c3ccccc3)no2)n1-c1ccccc1 -33.7%
CCOc1ccc(NC(=O)CCC(=O)N2CCSc3ccccc32)cc1 -20.2%
CCc1ccccc1NC(=O)Cn1c(=O)n(CCc2ccccc2)c(=O)c2ccccc21 -15.3%
CCCC(=O)n1nc(-c2cccnc2)nc1NCc1ccccc1 6.58%
COc1ccc(N2CCN(C(=O)Nc3ccccc3Cl)CC2)cc1 -3%
COc1ccc(Cn2c(CCC(=O)Nc3ccc(OC)c(Cl)c3)nc3cccnc32)cc1 -28.3%
COc1ccc(NS(=O)(=O)c2c(C)nc3scc(C)n3c2=O)cc1 -17.4%
O=C(Nc1ccc2nc(SCC(=O)N3CCOCC3)sc2c1)c1cccc(F)c1 -13.7%
COc1cccc(NC(=O)CSC2=Nc3ccccc3C3=NC(CC(=O)NCc4ccccc4OC)C(=O)N23)c1 (stereo not drawn) -12.4%
CCCCNC(=O)CCSc1nc(-c2ccc3c(c2)OCO3)cc(C(F)(F)F)n1 -5.09%
O=c1oc2ccc(Cl)cc2cc1-c1cn2c(n1)sc1ccccc12 -21%
CCOC(=O)N1CCN(S(=O)(=O)N2CCCC(C(=O)NCc3ccc(OC)cc3OC)C2)CC1 (stereo not drawn) -15.9%
Cn1c(C(=O)N2CCC(C(=O)N3CCN(c4ccccc4)CC3)CC2)cc2sccc21 -20.6%
Cc1nnc(N2CCN(c3cccc(C(F)(F)F)c3)CC2)c2c1nnn2Cc1ccccc1 -16.4%
Cc1ccc(CNC(=O)c2c[nH]n3c(=O)c(Cc4ccc(F)cc4Cl)c(C)nc23)cc1 -32.7%
COc1ccc(N2Cc3cccc(C(=O)Nc4cccc(F)c4)c3C2=O)cc1 4.04%
Cc1noc2ncnc(NCc3ccc(Cl)cc3)c12 -45.3%
CN(C)c1ccc(C(=O)Nc2ccc(-c3nc4ccccc4o3)cc2)cc1 12.1%
Cc1cc(NC(=O)C2CCCN(S(=O)(=O)c3cn(C)cn3)C2)ccc1Br (stereo not drawn) -10.4%
CCOc1ccc(CC(=O)Nc2c(C(=O)c3ccc(F)cc3)oc3ccc(Cl)cc23)cc1OCC 3.04%
Cc1cc(C)cc(NC(=O)N2CCC(N3CCN(Cc4ccccc4)C(=O)C3=O)CC2)c1 0.261%
COc1ccc(Nc2c3c(nc4ccc(NC(=O)c5cc(Cl)ccc5OC)cc24)CCCC3)cc1OC -94.7%
O=C(Nc1ccc(C(=O)OCc2cc(=O)n3ccsc3n2)cc1)c1cccc(F)c1 5.77%
COc1ccc(OC)c(CNC(=O)C2CCN(S(=O)(=O)c3ccc4[nH]c(=O)oc4c3)CC2)c1 -10.4%
COc1ccc(NC(=O)c2c(NCc3cccs3)sc3c2CCCCC3)c(OC)c1 0%
Cc1cc(Br)ccc1NC(=O)CCNS(=O)(=O)c1cccc2nonc12 -17.9%
O=C(Nc1ccc(Br)cc1F)c1cc2nc(-c3ccco3)cc(C(F)(F)Cl)n2n1 -0.115%
CCCOc1ccc2nc(NC(=O)OC)[nH]c2c1
O=S(=O)(c1ccc(OC(F)(F)F)cc1)N1CCC(c2nc3ccccc3s2)CC1 -9.13%
COc1ccc2c(c1)CC(C(=O)Nc1ccc(OC)cc1OC)CO2 (stereo not drawn) -5.9%
CCOc1ccc(OCC)c(Nc2nc3ccc(C(=O)c4ccccc4)cc3n3cnnc23)c1 -6.91%
CC(=O)O[C@]1(C(C)=O)CC[C@H]2[C@@H]3C=C(Cl)C4=CC(=O)[C@@H]5C[C@H]5[C@]4(C)[C@@H]3CC[C@@]21C -51.5%
CCOC(=O)c1ccc(N2C(=O)c3n[nH]c(-c4cccs4)c3C2c2ccc(OC)cc2OC)cc1 (stereo not drawn) -51%
C[C@@H](O)[C@H]1C(=O)N2C(C(=O)OCOC(=O)C(C)(C)C)=C(SC3CN(C4=NCCS4)C3)[C@H](C)[C@H]12 -20.5%
Cc1ccc(NC(=O)c2ccc(N(Cc3ccccc3)S(C)(=O)=O)cc2)cc1 -39.7%
COc1cc(OC)c(C=CS(=O)(=O)Cc2ccc(OC)c(NCC(=O)O)c2)c(OC)c1 -41.6%
CC(C)c1ccc(C2=NC(c3ccncc3)=Nc3ccc(F)cc3N2)cc1 -5.93%
CCOC(=O)c1c(S(=O)(=O)N2CCN(c3cccc(C(F)(F)F)c3)CC2)c(C)n(C)c1C 1.24% [at 11.5 µM, percent change from vehicle, -100% = no light]
CCOc1ccc(Cn2c(CNS(=O)(=O)c3ccc(CC)cc3)nc3cccnc32)cc1 -18.6%
